Results taken from publication PMC11772845.
These are yes or no findings as the source states them, for the method shown. In cells and extracts the contact can be indirect. Some binding calls cover weakened binding; strength is not graded here.

Chains of the proteins cited; added tags and fusions are not shown.
UniProt P00401: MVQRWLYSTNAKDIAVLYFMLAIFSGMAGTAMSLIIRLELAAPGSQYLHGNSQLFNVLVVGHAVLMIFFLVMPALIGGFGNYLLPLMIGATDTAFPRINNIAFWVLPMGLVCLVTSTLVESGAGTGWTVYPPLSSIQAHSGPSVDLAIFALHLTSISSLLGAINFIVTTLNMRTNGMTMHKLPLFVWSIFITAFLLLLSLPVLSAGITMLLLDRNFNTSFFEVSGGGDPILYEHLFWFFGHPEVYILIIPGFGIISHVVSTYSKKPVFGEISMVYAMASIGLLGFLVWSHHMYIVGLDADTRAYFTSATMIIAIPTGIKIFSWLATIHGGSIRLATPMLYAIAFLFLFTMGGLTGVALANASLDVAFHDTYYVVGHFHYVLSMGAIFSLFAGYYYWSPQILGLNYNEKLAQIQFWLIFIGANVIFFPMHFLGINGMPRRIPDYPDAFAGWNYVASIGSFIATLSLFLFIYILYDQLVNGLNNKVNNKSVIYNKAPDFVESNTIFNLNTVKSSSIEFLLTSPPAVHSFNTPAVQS

T1: Mic60_(ProtA) (S. cerevisiae) (UniProt P36112)
T1 sequence: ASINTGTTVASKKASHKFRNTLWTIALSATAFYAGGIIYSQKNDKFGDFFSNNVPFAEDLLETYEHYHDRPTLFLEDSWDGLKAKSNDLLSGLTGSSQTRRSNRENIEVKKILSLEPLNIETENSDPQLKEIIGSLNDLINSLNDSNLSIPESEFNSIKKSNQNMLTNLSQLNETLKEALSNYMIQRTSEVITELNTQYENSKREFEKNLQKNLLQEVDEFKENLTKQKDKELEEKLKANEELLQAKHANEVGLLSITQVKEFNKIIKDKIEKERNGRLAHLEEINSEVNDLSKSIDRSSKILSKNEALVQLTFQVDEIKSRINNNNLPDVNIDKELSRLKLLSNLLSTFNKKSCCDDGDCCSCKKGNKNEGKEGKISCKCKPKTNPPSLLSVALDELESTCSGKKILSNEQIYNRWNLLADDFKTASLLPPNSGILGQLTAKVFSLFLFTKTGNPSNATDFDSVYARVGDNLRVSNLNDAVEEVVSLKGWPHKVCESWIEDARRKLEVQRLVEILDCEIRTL

T2: Mic12_(ProtA) (S. cerevisiae) (UniProt P38341)
T2 sequence: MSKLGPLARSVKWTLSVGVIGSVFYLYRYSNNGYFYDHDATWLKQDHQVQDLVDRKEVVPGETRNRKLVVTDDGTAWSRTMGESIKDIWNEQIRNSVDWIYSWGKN

B1: [^35S]-labeled Cox5a (protein, UniProt P00424 1-153)
chain: MLRNTFTRAGGLSRITSVRFAQTHALSNAAVMDLQSRWENMPSTEQQDIVSKLSERQKLPWAQLTEPEKQAVWYISYGEWGPRRPVLNKGDSSFIAKGVAAGLLFSVGLFAVVRMAGGQDAKTMNKEWQLKSDEYLKSKNANPWGGYSQVQSK
modifications: [^35S]methionine label
B2: [^35S]-labeled Cox13 (protein, UniProt P32799 1-129)
chain: MFRQCAKRYASSLPPNALKPAFGPPDKVAAQKFKESLMATEKHAKDTSNMWVKISVWVALPAIALTAVNTYFVEKEHAEHREHLKHVPDSEWPRDYEFMNIRSKPFFWGDGDKTLFWNPVVNRHIEHDD
modifications: [^35S]methionine label
B3: [^35S]-labeled Qcr8 (protein, UniProt P08525 1-94)
chain: MGPPSGKTYMGWWGHMGGPKQKGITSYAVSPYAQKPLQGIFHNAVFNSFRRFKSQFLYVLIPAGIYWYWWKNGNEYNEFLYSKAGREELERVNV
modifications: [^35S]methionine label
B4: Cox4 (protein, UniProt P04037 26-155)
chain: QQKPVVKTAQNLAEVNGPETLIGPGAKEGTVPTDLDQETGLARLELLGKLEGIDVFDTKPLDSSRKGTMKDPIIIESYDDYRYVGCTGSPAGSHTIMWLKPTVNEVARCWECGSVYKLNPVGVPNDDHHH

Experiments:
[1] = target: T1, Mic60_(ProtA) (S. cerevisiae); experiment: co-IP; protein A- or TAP-tagged bait captured on IgG-Sepharose from mitochondria solubilised in 1% digitonin (20 mM Tris-HCl pH 7.4, 50 mM NaCl, 0.1 mM EDTA, 10% glycerol), washed with 0.3% digitonin, eluted with TEV protease at 4 °C; eluates analysed by SDS-PAGE or BN-PAGE and western blot; untagged wild type as control; also done with rho-, mic10Δ (Mic60 bait), mar26Δ, rip1Δ and Mar26-overexpressing mitochondria
[2] = target: T1, Mic60_(ProtA) (S. cerevisiae); experiment: condition: only imported into wild-type mitochondria that were mixed with Mic60_(ProtA) mitochondria before lysis (post-lysis control); co-IP; post-lysis control: [^35S]-labelled precursor imported into wild-type mitochondria, which were re-isolated and mixed with untreated Mic60_(ProtA) mitochondria before digitonin solubilisation and IgG chromatography; autoradiography
[3] = target: T1, Mic60_(ProtA) (S. cerevisiae); experiment: co-IP; [^35S]-labelled precursor imported into isolated mitochondria that carry the protein A-tagged bait; then digitonin solubilisation, IgG chromatography, SDS-PAGE (or two-dimensional gel) and autoradiography
[4] = target: T2, Mic12_(ProtA) (S. cerevisiae); experiment: co-IP; as a1, from Mic12_(ProtA)mic60Δ and Mic12_(ProtA)mic10Δ mitochondria; eluates on BN-PAGE and western blot

| Molecule | binding [1] | binding [2] | binding [3] | binding [4] |
| --- | --- | --- | --- | --- |
| Cox1 (from UniProt P00401 1-534) | binds |  |  |  |
| B1 |  | no binding | binds |  |
| B2 |  | no binding | binds |  |
| B3 |  | no binding | binds |  |
| B4 |  |  |  | binds weakly |
